Data taken from patent US20210221906A1 (Dana-Farber, published 2021).

Biological target: human carbonic anhydrase IX (CAIX) on renal cell carcinoma cells (human, UniProt Q16790)
Assay: cell-based or functional assay

IFN-γ ELISPOT spots with sk-rc-52 cells, fold over CAIX- sk-rc-59 cells [fold]	IFN-γ ELISPOT spots with sk-rc-52 cells, fold over G36-CD8z CART cells [fold]	IFNγ secretion with sk-rc-52 cells, fold over G36-CD8z CART cells [fold]	IL-2 secretion with sk-rc-52 cells, fold over G36-CD8z CART cells [fold]	IL-17 secretion with sk-rc-52 cells, fold over G36-CD8z CART cells [fold]	T cell proliferation after two weeks with sk-rc-52, tumor:T cell 1:4 [fold]	T cell proliferation after two weeks with sk-rc-52, tumor:T cell 1:8 [fold]	Binder
12	6	2.3	6.5	4	19	30	G36-CD28z CAR (scFvG36-CD28-TCRζ, 2nd generation anti-CAIX CAR) on transduced human T cells (other) EVQLVQSGGGVVQPGGSLRLSCAASGFPFSSYAMSWVRQAPGKGLEWVSAISANGGTTYYADSVKGRFTISRDNSKNTLYLQMNSLRAEDTAVYYCANNGNYRGAFDIWGQGTMVTVSSGGGGSGGGGSGGGGSQSVLTQPPSVSGAPGQRVTISCTGSSSNIGAGFDVHWYQQLPGTAPKLLIYGNTNRPSGVPDRFSGSKSGTSASLAITGLQAEDETDYYCQSYDSRLSAWVFGGGTKLTVLGTETSQVAPAGGGGSIEVMYPPPYLDNEKSNGTIIHVKGKHLCPSPLFPGPSKPFWVLVVVGGVLACYSLLVTVAFIIFWVRSKRSRLLHSDYMNMTPRRPGPTRKHYQPYAPPRDFAAYRS[about 120 residues left out]
–	–	–	–	–	4	17	G36-CD8z CAR (scFvG36-CD8-TCRζ, 1st generation anti-CAIX CAR) on transduced human T cells (other) EVQLVQSGGGVVQPGGSLRLSCAASGFPFSSYAMSWVRQAPGKGLEWVSAISANGGTTYYADSVKGRFTISRDNSKNTLYLQMNSLRAEDTAVYYCANNGNYRGAFDIWGQGTMVTVSSGGGGSGGGGSGGGGSQSVLTQPPSVSGAPGQRVTISCTGSSSNIGAGFDVHWYQQLPGTAPKLLIYGNTNRPSGVPDRFSGSKSGTSASLAITGLQAEDETDYYCQSYDSRLSAWVFGGGTKLTVLGTETSQVAPAGGGGSPTTTPAPRPPTPAPTIASQPLSLRPEACRPAAGGAVHTRGLDFACDIYIWAPLAGTCGVLLLSLVITLYCNH[about 120 residues left out]
